# Source: PubChem BioAssay AID445 (National Center for Advancing Translational Sciences (NCATS), 2006)
# Hit rate of the full screen: of about 110,000 compounds, about 40 (0.04%) were called active. The inconclusive results got no clear call from the source; some entries with a clear call stand among them for comparison. Calls follow the shape of the dose curve; as a rule, active = well fitted curve in the direction sought with a large enough effect in the signal ratio (not every such curve was filed as active); inconclusive = small, poorly fitted or top-dose-only effect, or a change in a side signal; inactive = flat fitted curve, though single readings scatter; the % refers to the signal ratio. Where the call is inconclusive, the potency comes from a doubtful curve fit.
# Assay: IkB Signaling;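 as to IkBa stabilization activation: 0% = basal untreated cells and 100% = reference inhibitor full response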
# Conditions: ABC-DLBCL IkBa-CBG/CBR dual luciferase ratio (green luciferase fused to IkBa over red control in OCI-Ly3 lymphoma cells), 4 h; IkBa stabilization activation: at 57.1 µM (top of the series), scaled: untreated 0%, proteasome inhibitor 100% unless noted
# Procedure, shortened: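 In this assay, an IκBα–CBG68 fusion accumulates when IKK-driven degradation is blocked; native CBR normalizes for cell number. OCI-Ly3 cells were treated 4 h with compound and doxycycline, then green and red light read after Chroma-Glo addition.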
# Potency is read from the fitted curve at half-maximal effect.
SMILES,Potency,IkBa stabilization activation
O=C(CSc1nc(-c2ccccc2)no1)N1CCN(c2ccccc2F)CC1,inconclusive: 7.94 µM [signal inhibitor],–
O=C(CCCOc1ccc(Cl)cc1)N1CCOCC1,–,inactive
Cc1[nH]c2ccccc2c1C(c1ccccn1)N1CCC(C(N)=O)CC1 (stereo not drawn),"inconclusive: 31.6 µM [rising, partial curve]",–
COc1ccccc1-c1noc(-c2ccccc2C(=O)Nc2ccccc2)n1,–,inactive
C(=N\C(/N=C/c1ccco1)c1ccco1)/c1ccco1,–,inactive
Cc1ccc(C(C)C)c(OCC(=O)Nc2cccc(NC(=O)c3ccco3)c2)c1,"inconclusive: 25.1 µM [signal inhibitor, partial curve]",–
Cc1ccc(-c2ccc(=O)n(Cc3cc(C)ccc3C)n2)cc1,–,inconclusive: 2.69% [signal inhibitor]
CCCc1cc(N2CCCC(C(=O)Nc3cc(Cl)ccc3OC)C2)n2ncnc2n1 (stereo not drawn),–,inconclusive: 7.02% [signal inhibitor]
CC1=Nc2cc(C(=O)NCCc3ccc(Cl)cc3)ccc2Sc2ccc(C)cc21,"inconclusive: 5.01 µM [rising, full curve]",–
Cc1ccc(C)c(NC(=O)c2ccc3c(c2)N(Cc2ccc(F)cc2)C(=O)CS3=O)c1 (stereo not drawn),–,inactive
COc1ccc(OC)c(NC(=O)c2cc(-c3cc(Cl)ccc3O)n[nH]2)c1,–,inconclusive: 6.03% [signal inhibitor]
COC(=O)C(Cc1c[nH]c2ccccc12)NC(=O)COc1ccc(Cl)cc1Cl (stereo not drawn),–,inconclusive: -3.18% [signal inhibitor]
CCN(c1cc(C)cc(C)c1)S(=O)(=O)c1nnc(NC(=O)c2cccs2)s1,–,inconclusive: 3.5% [signal inhibitor]
CCOc1ccc(-n2c(CCC(=O)O)ccc2-c2ccc(Br)cc2)cc1,–,inconclusive: 2.52% [signal inhibitor]
O=C(CSc1nnnn1C1CCCC1)Nc1ccc2c(c1)OCO2,–,inactive
COc1ccccc1CNC(=O)c1ccc(N2CCCC2)c(NC(=O)NCc2ccccc2)c1,–,inconclusive: 1.98% [signal inhibitor]
CCN(CC)S(=O)(=O)c1nnc(NC(=O)COc2ccccc2Cl)s1,–,inconclusive: -0.496% [signal inhibitor]
CCOc1ccc(C(=O)Nc2cccc(NC(=O)c3ccco3)c2)cc1Cl,–,inconclusive: 16% [signal inhibitor]
CCC(C(=O)N1CCN(c2ccccc2)CC1)n1nc(C)n2c(cc3sccc32)c1=O (stereo not drawn),–,inconclusive: 0.539% [signal inhibitor]
COc1ccc(C(=O)NCc2nnc(SCC(=O)Nc3ccccc3)n2-c2ccc(F)cc2)cc1,–,inconclusive: 2.09% [signal inhibitor]
COc1ccc(OC)c(NC(=O)CSc2ccnc(=O)[nH]2)c1,–,inconclusive: 11.8% [signal activator]
COc1ccc(NC(=O)c2c(NCc3ccc(C)o3)sc3c2CCC(C)C3)c(OC)c1 (stereo not drawn),–,inconclusive: -3.65% [signal inhibitor]
Cn1c(=O)oc2cc(S(=O)(=O)CCC(=O)N3CCN(c4ccccc4)CC3)ccc21,–,inconclusive: 4.18% [signal inhibitor]
COc1ccccc1-c1cc(C(=O)Nc2sc3c(c2C#N)CCCC3)no1,–,inconclusive: 14.5% [signal inhibitor]
Cc1nc2ccccc2c2oc(C(=O)NCCN3CCN(C)CC3)cc12,–,inactive

SMILES,Potency,IkBa stabilization activation
CC(=O)c1ccc(Oc2cc(C)nc(-n3nc(C)cc3C)n2)cc1,active: 6.31 µM,–
COc1ccc(C2CC(c3c(O)n(C4CCCCC4)c(=O)[nH]c3=O)=Nc3ccccc3S2)cc1 (stereo not drawn),–,inconclusive: 0.183% [signal inhibitor]
CCOc1cc(N2CCOCC2)c(OCC)cc1NC(=O)COc1cccc2cccnc12,–,inconclusive: 9.99% [signal inhibitor]
CCC(Sc1nc2n[nH]c(C)c2c(=N)n1-c1cccc(Cl)c1)C(=O)NCCOC (stereo not drawn),–,inactive
CC(C)Cn1c(=O)c2ccccc2n2c(CCC(=O)Nc3cccc(Cl)c3)nnc12,–,inconclusive: 0.431% [signal inhibitor]
O=C(Cc1ccccc1)Nc1nc2ccccc2[nH]1,–,inconclusive: 4.57% [signal inhibitor]
Cc1nc2c(c(=O)n1Cc1ccccc1Cl)c1nc3ccccc3nc1n2Cc1ccco1,"inconclusive: 31.6 µM [rising, partial curve]",–
CCOc1ccccc1/C=C/c1onc(C)c1S(=O)(=O)N1CCC(C(=O)N(CC)CC)CC1,–,inactive
O=C(CCNc1ccccc1)c1ccc2c(c1)OCO2,–,inactive
Cc1ccc(S(=O)(=O)NCCSc2nnnn2-c2cc(C)ccc2C)cc1,–,inactive
CCC(CC)c1nn2c(=O)cc(COc3ccc(NC(=O)c4ccccc4Cl)cc3)nc2s1,–,inconclusive: 3.45% [signal inhibitor]
OC1(c2ccc3c(c2)OCO3)CCN(Cc2ccccn2)CC1,–,inactive
COC(=O)c1sccc1NC(=O)c1ccc2c(c1)OCO2,–,inactive
Cc1cccc(CNS(=O)(=O)c2ccc3[nH]c(=O)ccc3c2)c1,–,inconclusive: 7.64% [signal inhibitor]
COc1ccc(Cn2c(=O)[nH]c3cc(C(=O)N4CCN(c5cc(C)ccc5C)CC4)ccc3c2=O)cc1,–,inconclusive: 3.46% [signal inhibitor]
COc1ccc(C)cc1NC(=O)c1cc(S(=O)(=O)NC2CCCCCC2)ccc1F,–,inconclusive: 0.659% [signal inhibitor]
Cc1ccc(Cn2nnc3c(=O)n(CC(=O)OCc4ccccc4)cnc32)cc1,–,inconclusive: 1.79% [signal inhibitor]
Cc1cc(NC(=O)c2cc(-c3ccc(Cl)cc3)on2)nn1Cc1ccc(Cl)cc1,–,inactive
CCC1CN(C(=O)Nc2cc(C)cc(C)c2)c2ccccc2O1 (stereo not drawn),–,inconclusive: 1.63% [signal inhibitor]
Cc1cccc(CN2CCc3nc(N4CCN(c5ccccn5)CC4)ncc3C2)c1,–,inconclusive: 0.764% [signal inhibitor]
Cc1cc(NC(=O)CSc2nc3sc4c(c3c(=O)n2C)CCCC4)no1,–,inactive
O=C1C2CC=C(Cl)CC2C(=O)N1CC1Cc2ccccc2CO1 (stereo not drawn),–,inconclusive: 15.6% [signal inhibitor]
COc1cccc(NC(=O)C2CCN(C(=O)N3CC(C)Oc4ccccc43)CC2)c1 (stereo not drawn),–,inactive
O=C(NCCSc1c(-c2ccc(F)cc2)[nH]c2ccccc12)c1ccc(S(=O)(=O)N2CCOCC2)cc1,–,inconclusive: 1.65% [signal inhibitor]
COc1ccc(-c2cn3ccccc3n2)cc1OC,–,inactive

SMILES,Potency,IkBa stabilization activation
O=C(NCc1ccccc1Cl)c1ccc2c(O)c(S(=O)(=O)c3ccccc3)c(=O)[nH]c2c1,–,inactive
CC(=O)c1ccc(NC(=O)CCc2c(C)nc3cc(-c4ccc(Cl)cc4)nn3c2C)cc1,"inconclusive: 31.6 µM [signal inhibitor, partial curve]",–
O=C(C1CCCCC1)N1CCC(c2nc3c(nnn3Cc3c(F)cccc3Cl)c(=O)[nH]2)CC1,–,inconclusive: 1.46% [signal inhibitor]
COc1cccc(-n2c(SCc3ccccc3C)nc3c([nH]c4ccccc43)c2=O)c1,–,inactive
Cc1cccc(Cc2c(C)nc3nc(SCc4ccccc4C)nn3c2C)c1,–,inactive
CCCCOc1ccc(CNC(=O)c2cnc3sc(N4CCOCC4)nn3c2=O)cc1,–,inconclusive: 0.548% [signal inhibitor]
COc1cccc(N=C2SC(C(=O)Nc3ccc(F)cc3)CC(=O)N2C)c1 (stereo not drawn),–,inconclusive: 7.43% [signal inhibitor]
O=C(CCn1ccc2cc(S(=O)(=O)N3CCCC3)ccc21)NCc1cccc(Br)c1,–,inconclusive: 0.778% [signal inhibitor]
CCOC(=O)C(C)Oc1cccc2c(=O)n(CC(=O)Nc3ccc4c(c3)OCCO4)ccc12 (stereo not drawn),–,inactive
Cc1cc(N2CCC(C)CC2)n2ncc(-c3ccccc3)c2n1,–,inconclusive: 16.7% [signal inhibitor]
COc1ccc(NC(=O)c2oc3ccccc3c2NC(=O)COc2ccccc2OC)c(OC)c1,–,inactive
Cc1ccc(C(=O)NCC(c2cccnc2)N2CCc3ccccc32)cc1C (stereo not drawn),–,inconclusive: 7.34% [signal inhibitor]
Cc1ccc(-c2nc3ncccc3o2)cc1NC(=O)c1cccc(OCC(C)C)c1,inconclusive: 12.6 µM [signal inhibitor],–
COc1cc(OC)c(NS(=O)(=O)c2ccc3c(c2)NC(=O)CCS3)cc1Cl,–,inconclusive: -1.2% [signal inhibitor]
CC(=O)Nc1ccc(C2Nc3c(C)cc(C)cc3-c3cc(C)nn32)cc1 (stereo not drawn),–,inconclusive: 4.54% [signal inhibitor]
CC(C)(C)CC(C)(C)c1ccc(OCCOCC[N+](C)(C)Cc2ccccc2)cc1,–,inconclusive: 3.68% [signal inhibitor]
Cc1cc(C)cc(Nc2sc(C(=O)c3ccccc3)c(N)c2S(=O)(=O)c2ccccc2)c1,–,inconclusive: 0.997% [signal inhibitor]
O=C(Nc1nnc(-c2ccccc2Cl)o1)c1cccnc1,–,inconclusive: 7.99% [signal inhibitor]
CCc1nn(CC(=O)NC(C)c2ccccc2)c(=O)c2cc3sccc3n12 (stereo not drawn),–,inactive
CCOc1ccc(NC(=O)Cn2nnc(C(=O)Nc3ccc(OCC)cc3)c2N)cc1,–,inactive
CC(C)CCNC(=O)[C@@H](c1ccccc1)N1Cc2ccccc2C1=O,–,inactive
O=C(COc1ccccc1-c1nc(-c2ccccc2)no1)Nc1ccccc1[N+](=O)[O-],–,inconclusive: 1.91% [signal inhibitor]
COc1ccccc1N1CCN(S(=O)(=O)c2c(C)sc3ncn(CC(=O)Nc4ccc(C(F)(F)F)cc4)c(=O)c23)CC1,–,inconclusive: 4% [signal inhibitor]
